The full ranking holds about 4,500 sequences; the median of “median log2 fold change of GCK-ALFA target abundance (FLAG IP / Myc IP barcode read proportion)” is about 0.078, and the lowest 2% start at about -0.6. Some of the results follow.
B1: GBRAP_80_6830 (protein)
chain: MEAELEAVLKALAEVDPEIAELVRRAVAIARELGVPLSALLRLTRAVLELAKVDKEAALALVRRLLAELEEAKAEGDQARALALLADAESEALLRVEELE
B2: GBRAP_11_2744 (protein)
chain: KKEKLEEIKKLAEELAKTLQQLIEEGVDNEELIKKAEELIKKLKELVKKYGDESLKKLAEIIAEDFEKAKADPETALQHWQNALAAARVLAGQVLLEIEE
B3: GBRAP_11_2655 (protein)
chain: KKEKLKEAAELAREAAEALEQLIEEGVDNEELQKKLREKIEKLLELAKKEADKADQHEVEVVVELWEEFLADPENKEKLAEELLAGLRVLEGNFELEADE
B4: GBRAP_52_6293 (protein)
chain: SEEEVEKLAEEIVELVKEGKLEEAIKLAKEFVKEHSLEEVLRLGELLIEKIEELTPEEAEKMLEVVEALAEKLEEEFNAEEEADYLEARAAAAAYKVFLK
B5: GBRAP_48_5820 (protein)
chain: PHMDKEKLKELVEETVEEMKELYEEMKAEGKSEEEILKVIKAELGDLALELEEAGYTKAADYLLDPENREKTAKTLLEFFKKGKYEEAKEYLLKKLEEAE
B6: GBRAP_52_6030 (protein)
chain: MEEKMEKLAQEIIDLVKEGKLEEAKKLAKEIVENLSEEELKMLGEKLAELTKEAPKEELDAYMEAAFIVADALEEAGYEEVFADDLLAKVAAAAVENLKK
B7: GBRAP_83_6997 (protein)
chain: AEKVTVAAAGDHILEAADIAIDLTKEEGKEVTIELIVRPEDIEKALEAVERLAKAGIETEILVVGLGLTEEEAERLKEEMEKIAKEHGVKIKVEVYLEEV
B8: GBRAP_74_6521 (protein)
chain: MEKLLEELKKAAEEGNAEEAVKLAKEIVKNGDLETIEEAAKIMVEFVDKHLDELSPEELEAVSDALAELADELMLRGGDSETVIAVANAAVRAEEKRAAL
B9: GBRAP_78_6653 (protein)
chain: EVEELVDKAMEHLDKAAKLTKQLDEESQNELLDLLVEAASHLLLSEEEGFDLKELEEALKYLEEALKYAKSLKTPTAEKIAEELEKAIEYLKKAIELLKK
B10: GBRAP_78_6678 (protein)
chain: EVEEHLDKALDHLNKAAKILNSMNTEEALDILGKVIDVAETVWEAHEGEADLEELKKALKEAKAALEEVKKIDTPEAKEAAKHLQAAIKELEAAIKLLEE
B11: GBRAP_128_3552 (protein)
chain: STEEAVAKAKELLEKMKTASPEEARELAEELAELLASASPEAREAIVKAILEELPELSVEHLEILADVFREKRPEADPDTANALAEIEVEALNEAEEKEE
B12: GBRAP_166_4975 (protein)
chain: AQAALVEALRARFDELAEKMKTADPEEKLELLAEAAEALAAARAAGLSPEDLRELIRYLIEKAKEVGIPLSAVEGALTILAELDEEEIDILDEAIAEVEA
B13: GBRAP_128_3291 (protein)
chain: SAAARYAEYRARLEAMLALSPEEFRAALLALALEAGAEGLEAVELFAEALEELAPRMTVEQLEAAAEALDEARAEVGPEAAAILADAANDLLLAAEEKEE
B14: GBRAP_95_7063 (protein)
chain: SETLEEAEILLDTAEDLVEAGLYERAAELAKLAYEELKEAGEKGENLLRLAKVLTKIAKATGNEEAAKLAEEALEEVKKAGGDEEEIEKLKKEIEKAKKK
B15: GBRAP_159_3958 (protein)
chain: MEELEKRVKEAKEKAKDNPEVVKLIEEVYDLIKEGEDAETIADFTVGSIVTLDVTPEEARLVLSVLPEETRRLAAEDLAYLAEELGREDLAAAARAILEE
B16: GBRAP_184_5280 (protein)
chain: TVRDVEIEAETAEEAIAAIRAAAAAARAEGAKLRLNILLRNASIEGILALFALLAELRAEGIIESAVLGIERELSEEEIDTVLAAADAAGVRVVLAIPDE
B17: GBRAP_52_6000 (protein)
chain: SMERLRKFAEELVEAAKAGDEERLEKLVKEVGKTFTPEEQLETLTLAIELAKTLGEEAVDVLARLAEAIEDAALEDALDPEVANEALTLALTAAIELEKK
B18: GBRAP_160_4740 (protein)
chain: KEELKKLKEEIEEIFEEGIELLKESEKEEALTIVRGIMGDVIMEVMSSEAASDELEDEIAEIADEAIEEVKANADAPIEKAIEIVEEAREKILELIEKEI
B19: GBRAP_80_6827 (protein)
chain: MEEKLEEVLKELEEIDEEIAKLVKEIVELARELGVPLERLLRFAEAILELAKKDKEKALKLVKETLEEVKEAKKRGNRDEVIAILADAESDALLEVEELE

Each binder was assayed against GABARAP, O95166 (assay: median log2 fold change of GCK-ALFA target abundance (FLAG IP / Myc IP barcode read proportion) (log2 ratio); each designed protein is fused to an ALFA-tag nanobody in HEK293 cells to bring the named protein to FLAG-tagged glucokinase (GCK); Myc marks an untargeted standard; higher = target protein stabilised (more abundant)). Details: target protein: 3xFLAG-MCP-GCK-ALFA reporter; HEK293 landing pad (RPLP).
Sequence of GABARAP, O95166 (O95166 whole entry, the tested form may be a part): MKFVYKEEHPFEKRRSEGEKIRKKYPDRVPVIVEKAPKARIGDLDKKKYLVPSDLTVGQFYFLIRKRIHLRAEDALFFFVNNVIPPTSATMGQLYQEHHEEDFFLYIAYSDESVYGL
How it was run: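 Sequencing of reverse-transcribed, amplified circular RNA barcodes from anti-FLAG and anti-Myc immunoprecipitates provided the readout for an ALFA-nanobody-fused binder library recombined into HEK293 landing-pad cells. Those cells were induced with 2 μg mL^−1 doxycycline, transfected with a plasmid expressing a FLAG-tagged target and a Myc-tagged standard, and lysed after 48 h. Target abundance is the per-binder median log2 ratio of FLAG to Myc barcode read proportions. Only barcodes at a proportion of ≥10^−7 in both replicates and binders with ≥3 barcodes per replicate were kept, with a 10^−6 pseudocount added before the two replicates were pooled.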

| Binder | median log2 fold change |
| --- | --- |
| B1 | 0.209 |
| B2 | 0.387 |
| B3 | 0.192 |
| B4 | -0.318 |
| B5 | 0.224 |
| B6 | -0.311 |
| B7 | -0.0374 |
| B8 | 0.0619 |
| B9 | -0.163 |
| B10 | 0.0214 |
| B11 | 0.134 |
| B12 | 0.0804 |
| B13 | 0.14 |
| B14 | 0.448 |
| B15 | 0.0598 |
| B16 | -0.158 |
| B17 | 0.00163 |
| B18 | 0.102 |
| B19 | -0.293 |

Reference: the supplement of paper PMC12632987
